Assay results taken from PMC6919601, “Identification of Plasmodium dipeptidyl aminopeptidase allosteric inhibitors by high throughput screening” (PLoS ONE, 2019).
In all, about 110,000 compounds went through this assay and about 230 (0.21%) showed an effect of 50% or more. This is one part of the list.

target: DPAP1 (Plasmodium falciparum, UniProt Q8IIJ9); experiment: primary screen, percent inhibition; read by cleavage of a fluorogenic dipeptide substrate; higher = more effect of the substance; set-up: species or system P. falciparum D10 trophozoite lysates; single well
Sequence (Q8IIJ9 whole entry, looked up): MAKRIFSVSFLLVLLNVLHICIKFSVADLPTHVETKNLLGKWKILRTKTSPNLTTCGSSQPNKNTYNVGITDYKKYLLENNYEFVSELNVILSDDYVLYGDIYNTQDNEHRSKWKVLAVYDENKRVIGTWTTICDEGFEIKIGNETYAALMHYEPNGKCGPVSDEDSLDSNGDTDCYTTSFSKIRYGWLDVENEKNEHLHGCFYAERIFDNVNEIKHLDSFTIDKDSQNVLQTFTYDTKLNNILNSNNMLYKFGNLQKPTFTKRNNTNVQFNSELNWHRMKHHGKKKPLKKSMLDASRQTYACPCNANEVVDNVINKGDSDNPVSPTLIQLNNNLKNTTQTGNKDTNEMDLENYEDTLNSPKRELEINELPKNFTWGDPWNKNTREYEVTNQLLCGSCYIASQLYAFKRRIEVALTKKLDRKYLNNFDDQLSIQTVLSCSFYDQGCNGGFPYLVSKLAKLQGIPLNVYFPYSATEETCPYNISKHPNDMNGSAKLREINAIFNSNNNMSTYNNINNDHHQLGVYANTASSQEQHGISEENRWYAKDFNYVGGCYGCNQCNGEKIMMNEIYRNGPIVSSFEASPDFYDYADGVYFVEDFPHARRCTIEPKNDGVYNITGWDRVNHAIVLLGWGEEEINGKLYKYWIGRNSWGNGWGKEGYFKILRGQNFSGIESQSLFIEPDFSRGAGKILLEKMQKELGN
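Note: 30 min substrate incubation versus DMSO and 10 µM JCP410 controls.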

Compound | % Inhibition @ 10 uM [%]
CCCCOc1ccc(/C=C2\SC(=O)NC2=O)cc1OCC | 1.64
Cc1cc(C)c2ccc(C3C(=O)c4ccccc4C3=O)nc2c1 | -1.11
CC(=O)Nc1ccc(CN2CCN(c3cccc(Cl)c3)CC2)cc1 | 1.4
COc1ccc(C2=N/C(=C\c3ccc4c(c3)OCO4)C(=O)O2)c(Cl)c1 | 5.32
COc1ccc(C2C(C(=O)c3ccc(C)cc3)=C(O)C(=O)N2CCN2CCOCC2)c(OC)c1 (stereo not shown) | -1.61
c1ccc(CC2CCN(c3ncnc4c3cnn4-c3ccccc3)CC2)cc1 | 7.92
Cc1nc(-c2ccc(Br)cc2)nc(O)c1C | 0.937
O=C(NC(Nc1ccc(Cl)cc1)C(=O)c1ccccc1)c1ccccc1 (stereo not shown) | 3.31
CC1=C(c2ccc(C)c(C)c2)S(=O)(=O)N=C1N1CCC(C(=O)NCCCN2CCCC2=O)CC1 | 0.0575
COc1ccccc1C1=N/C(=C\c2ccc(C(C)C)cc2)C(=O)O1 | -0.597
COc1ccc(Cl)cc1C(=O)Nc1ccc(CC#N)cc1 | 3.21
COc1cc(/C=C2/NC(=O)NC2=O)ccc1OCC(=O)O | 1.31
CC(C)CC(=O)Nc1nc(-c2ccc3ccccc3c2)cs1 | -4.33
Cc1cc(OCC(=O)Nc2ccc(S(=O)(=O)N3CCCC3)cc2)ccc1Cl | 5.15
COc1ccc(C(=O)Nc2sc3c(c2C(N)=O)CCC(C)C3)cc1 (stereo not shown) | 0.795
Cc1ccc(CC(=O)Nc2nnc(C(F)(F)F)s2)cc1 | -2.98
Clc1cccc(N2CCN(Cc3ccc(Cl)c(Cl)c3)CC2)c1 | 1.55
O=C(CCCc1nc(-c2ccccc2)no1)NCc1ccccc1 | -2.92
CC(=O)c1ccc(NC(=O)Cn2c(-c3nonc3N)nc3ccccc32)cc1 | 0.121
CC1CN(C/C(Cl)=C/c2ccccc2)CC(C)O1 (stereo not shown) | 3.48
CCOC(=O)c1conc1-c1ccc(Cl)cc1Cl | 0.177
CC1=CC(=O)N(CCNC(=O)C2CCCNC2=O)C1=O (stereo not shown) | 5.23
CC(NC(=O)CSc1nc(N)cc(O)n1)c1ccccc1 (stereo not shown) | -3.21
Cc1ccc(S(=O)(=O)N(CC(=O)N2CCN(c3ccccc3)CC2)c2ccccc2F)cc1 | -6.36
Cc1nc(C)c(C(=O)Nc2nnc(C(C)C)s2)s1 | -4.54
CC(C)C[C@H](NC(=O)OCCCC1CCCCC1)C(=O)NCC#N | -4.72
COc1ccc2nc(N3CCC(C(=O)NCCC(C)C)CC3)sc2c1 | 1.07
Oc1c(Cl)cc(Cl)cc1C1NCCc2c1[nH]c1ccccc21 (stereo not shown) | 19.2
